Test results reported in patent publication US7384915B2, “Chimeric insulin-gad proteins for treating patients with type 1 diabetes or at risk of developing type 1 diabetes” (Alexion Pharmaceuticals, Inc., priority 1997, dated 2008).

Tests used:
[1] = test system: NOD/SCID mice injected with diabetogenic spleen cells; experiment: NOD/SCID adoptive transfer model of IDDM; type: in vivo, mouse; conditions: IV, 300 ugs of antigen twice daily every other day, day 3 to day 9 after spleen cell transfer; FIG. 5
Experimental: Experiments in the NOD/SCID Adoptive Transfer Model: Spleen mononuclear cells were harvested from diabetic NOD mice of recent disease onset (diabetic not more than 3 weeks) and about 35×10^6 of these spleen cells in 0.2 ml of PBS were injected intravenously into 6-8 week old NOD/SCID mice. Onset of diabetes was monitored biweekly by urine glucose testing and confirmed by blood glucose testing on day 28 relative to the time of spleen cell transfer. At day 28, these mice were sacrificed and examined histologically.
Diabetogenic splenic mononuclear cells were harvested from newly diabetic NOD mice (onset less than 3 weeks previous). To initiate the destruction of islet beta cells and the development of diabetes, 8-12 week old NOD/SCID mice were injected intravenously with 35×10^6 diabetogenic spleen cells. The incidence and onset of diabetes were monitored biweekly by urine glucose testing and confirmed by blood glucose testing at the end of the experiment. The average onset time of diabetes after disease induction was approximately 25 days. IV treatment with IG2, IG3, or islet beta cell antigens was initiated on day 3. Animals were treated with 300 ugs of antigen twice daily every other day for a period of six days (from day 3 to day 9, where the time of spleen cell transfer was day 0).

[2] = test system: non-diabetic male NOD mice; experiment: CYTOXAN (cyclophosphamide) induced IDDM model, antigen treatment; type: in vivo, mouse; conditions: FIG. 4; for reduction in the incidence of diabetes compared to BSA treated control animals: 100 ug and 300 ug doses
Description: Experimental Methods Non-obese diabetic (NOD) mice are a strain of mice that are prone to the development of diabetes, and represent an accepted model system for the study of diabetes mellitus. These mice, designated NOD/MrkTacfBR, were purchased from Taconic Farms (Germantown, N.Y.). NOD SCID mice, designated NOD/SCID, are available from the Jackson Laboratories, Bar Harbor, Me. The incidence of diabetes by 200 days of age in these mice is 80% in females and 50% in males. At 110 days of age, fewer than 15% of the male NOD mice became diabetic. […] In contrast, animals treated with either ICB or either of GAD 65 250-273 or 520-555 peptides, experienced reductions to less than 50% incidence of diabetes. The therapeutic effects of treatment with combinations of ICB and the two GAD peptides were then examined (FIG. 3).

Row | Molecule | onset of disease in NOD/SCID recipients [1] | reduction in the incidence of diabetes compared to BSA treated control animals [2] | disease incidence ([2]; 300 ug doses, BSA controls greater than 80%) | reduction of incidence of diabetes, IG2 compared with IG1 [2]
1 | IG2: chimeric insulin-GAD 65 fusion protein, SEQ ID NO:2 (protein, IG2 fusion protein for hGAD65 (human glutamate decarboxylase)) [sequence of about 40 residues omitted]RREAEDLMNILLQYVVKSFDNMYAMMIARFKMFPEVKE[sequence of about 20 residues omitted]LKKCLELAEYLYNIIKNREGYEMVFDGKPQHTNVCFWYIPPSLRTLEDNEERMSRLSKVAPVIKARMMEYGTTMVSYQPLGDKVNHHHHHH | prevented the onset of disease | dose-dependent reduction in the incidence of diabetes | less than 12% | reduced the incidence of diabetes to a greater degree than IG 1
2 | IG1: chimeric insulin-GAD 65 fusion protein, SEQ ID NO:1 (protein, IG1 fusion protein for hGAD65 (human glutamate decarboxylase)) [sequence of about 40 residues omitted]RREAEDLNMYAMMIARFKMFPEVKEKGMAALPRLIAFTSEKCLELAEYLYNIIKNREGYEMVFDGKPQHTNVCFWYIPPSLRTLEDNEERMSRLSKVAPVIKARMMEYGTTMVSYQPLGDKVNHHHHHH | only a slight delay in disease onset | dose-dependent reduction in the incidence of diabetes | – | –
